Consider five molecules from PMC8844414.

Chains of the proteins cited; added tags and fusions are not shown.
UniProt Q86U86: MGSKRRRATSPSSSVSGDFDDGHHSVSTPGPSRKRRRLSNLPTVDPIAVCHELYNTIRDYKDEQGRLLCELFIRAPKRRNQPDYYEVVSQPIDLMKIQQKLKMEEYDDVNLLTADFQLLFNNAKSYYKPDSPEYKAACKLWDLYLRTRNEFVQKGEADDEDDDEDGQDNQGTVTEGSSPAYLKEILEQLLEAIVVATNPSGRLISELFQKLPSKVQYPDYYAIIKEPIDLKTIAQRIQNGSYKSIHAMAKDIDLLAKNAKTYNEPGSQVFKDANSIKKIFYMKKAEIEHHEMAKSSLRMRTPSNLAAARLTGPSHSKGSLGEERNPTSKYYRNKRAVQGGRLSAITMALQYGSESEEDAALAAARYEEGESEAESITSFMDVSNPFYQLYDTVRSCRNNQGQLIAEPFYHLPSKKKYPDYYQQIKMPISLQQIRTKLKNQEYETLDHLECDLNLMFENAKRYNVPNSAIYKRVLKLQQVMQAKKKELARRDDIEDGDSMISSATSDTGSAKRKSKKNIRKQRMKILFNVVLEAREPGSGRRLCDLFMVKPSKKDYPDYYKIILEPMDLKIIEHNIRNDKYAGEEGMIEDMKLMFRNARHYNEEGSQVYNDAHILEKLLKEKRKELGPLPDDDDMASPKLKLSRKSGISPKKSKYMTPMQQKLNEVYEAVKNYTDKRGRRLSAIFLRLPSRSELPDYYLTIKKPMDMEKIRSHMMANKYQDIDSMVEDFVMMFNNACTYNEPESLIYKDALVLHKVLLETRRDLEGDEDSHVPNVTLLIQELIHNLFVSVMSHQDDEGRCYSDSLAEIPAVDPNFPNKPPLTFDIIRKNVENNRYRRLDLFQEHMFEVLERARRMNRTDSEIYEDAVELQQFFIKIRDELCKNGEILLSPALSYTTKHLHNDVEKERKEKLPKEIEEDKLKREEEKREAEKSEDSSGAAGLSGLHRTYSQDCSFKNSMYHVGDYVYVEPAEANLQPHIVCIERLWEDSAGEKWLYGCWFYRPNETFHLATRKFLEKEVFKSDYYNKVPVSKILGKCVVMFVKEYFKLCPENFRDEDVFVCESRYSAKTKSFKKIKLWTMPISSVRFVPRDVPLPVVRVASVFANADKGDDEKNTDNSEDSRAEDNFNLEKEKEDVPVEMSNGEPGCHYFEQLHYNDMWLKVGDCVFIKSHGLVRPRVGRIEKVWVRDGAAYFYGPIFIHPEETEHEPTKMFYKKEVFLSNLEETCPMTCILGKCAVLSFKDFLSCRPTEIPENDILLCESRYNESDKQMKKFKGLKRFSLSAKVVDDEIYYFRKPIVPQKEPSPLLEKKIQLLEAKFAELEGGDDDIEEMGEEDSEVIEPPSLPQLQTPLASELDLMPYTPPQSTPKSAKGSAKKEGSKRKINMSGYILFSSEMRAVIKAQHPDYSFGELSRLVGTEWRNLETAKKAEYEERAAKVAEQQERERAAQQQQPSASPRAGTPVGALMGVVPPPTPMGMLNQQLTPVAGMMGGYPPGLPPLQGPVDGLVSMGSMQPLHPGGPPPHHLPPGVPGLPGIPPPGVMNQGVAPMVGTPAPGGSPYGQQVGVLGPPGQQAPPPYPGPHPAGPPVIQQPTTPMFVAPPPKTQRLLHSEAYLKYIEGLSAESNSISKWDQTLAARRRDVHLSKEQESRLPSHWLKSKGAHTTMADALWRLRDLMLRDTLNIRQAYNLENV
UniProt Q969G3: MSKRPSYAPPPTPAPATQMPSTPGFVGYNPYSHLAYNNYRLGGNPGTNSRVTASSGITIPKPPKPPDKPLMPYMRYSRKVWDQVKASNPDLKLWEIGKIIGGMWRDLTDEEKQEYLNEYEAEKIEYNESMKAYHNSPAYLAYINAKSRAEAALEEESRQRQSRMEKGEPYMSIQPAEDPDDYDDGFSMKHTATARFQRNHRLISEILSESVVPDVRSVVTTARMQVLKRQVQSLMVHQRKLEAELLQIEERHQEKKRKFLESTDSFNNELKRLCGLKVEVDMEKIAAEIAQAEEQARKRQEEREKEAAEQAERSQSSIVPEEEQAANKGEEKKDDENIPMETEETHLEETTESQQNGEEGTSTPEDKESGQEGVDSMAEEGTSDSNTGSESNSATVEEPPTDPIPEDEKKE
UniProt Q92785: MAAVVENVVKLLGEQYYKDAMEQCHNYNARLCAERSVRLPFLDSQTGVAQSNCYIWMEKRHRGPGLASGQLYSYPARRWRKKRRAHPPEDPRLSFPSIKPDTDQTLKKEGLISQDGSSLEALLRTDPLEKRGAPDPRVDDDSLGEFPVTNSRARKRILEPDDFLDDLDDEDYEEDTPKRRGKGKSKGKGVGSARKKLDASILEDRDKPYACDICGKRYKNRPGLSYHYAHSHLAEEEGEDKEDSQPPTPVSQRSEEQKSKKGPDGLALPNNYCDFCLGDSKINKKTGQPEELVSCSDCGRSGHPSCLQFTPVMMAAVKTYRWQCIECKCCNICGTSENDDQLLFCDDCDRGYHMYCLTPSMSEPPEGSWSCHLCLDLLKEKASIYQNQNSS
UniProt P51532: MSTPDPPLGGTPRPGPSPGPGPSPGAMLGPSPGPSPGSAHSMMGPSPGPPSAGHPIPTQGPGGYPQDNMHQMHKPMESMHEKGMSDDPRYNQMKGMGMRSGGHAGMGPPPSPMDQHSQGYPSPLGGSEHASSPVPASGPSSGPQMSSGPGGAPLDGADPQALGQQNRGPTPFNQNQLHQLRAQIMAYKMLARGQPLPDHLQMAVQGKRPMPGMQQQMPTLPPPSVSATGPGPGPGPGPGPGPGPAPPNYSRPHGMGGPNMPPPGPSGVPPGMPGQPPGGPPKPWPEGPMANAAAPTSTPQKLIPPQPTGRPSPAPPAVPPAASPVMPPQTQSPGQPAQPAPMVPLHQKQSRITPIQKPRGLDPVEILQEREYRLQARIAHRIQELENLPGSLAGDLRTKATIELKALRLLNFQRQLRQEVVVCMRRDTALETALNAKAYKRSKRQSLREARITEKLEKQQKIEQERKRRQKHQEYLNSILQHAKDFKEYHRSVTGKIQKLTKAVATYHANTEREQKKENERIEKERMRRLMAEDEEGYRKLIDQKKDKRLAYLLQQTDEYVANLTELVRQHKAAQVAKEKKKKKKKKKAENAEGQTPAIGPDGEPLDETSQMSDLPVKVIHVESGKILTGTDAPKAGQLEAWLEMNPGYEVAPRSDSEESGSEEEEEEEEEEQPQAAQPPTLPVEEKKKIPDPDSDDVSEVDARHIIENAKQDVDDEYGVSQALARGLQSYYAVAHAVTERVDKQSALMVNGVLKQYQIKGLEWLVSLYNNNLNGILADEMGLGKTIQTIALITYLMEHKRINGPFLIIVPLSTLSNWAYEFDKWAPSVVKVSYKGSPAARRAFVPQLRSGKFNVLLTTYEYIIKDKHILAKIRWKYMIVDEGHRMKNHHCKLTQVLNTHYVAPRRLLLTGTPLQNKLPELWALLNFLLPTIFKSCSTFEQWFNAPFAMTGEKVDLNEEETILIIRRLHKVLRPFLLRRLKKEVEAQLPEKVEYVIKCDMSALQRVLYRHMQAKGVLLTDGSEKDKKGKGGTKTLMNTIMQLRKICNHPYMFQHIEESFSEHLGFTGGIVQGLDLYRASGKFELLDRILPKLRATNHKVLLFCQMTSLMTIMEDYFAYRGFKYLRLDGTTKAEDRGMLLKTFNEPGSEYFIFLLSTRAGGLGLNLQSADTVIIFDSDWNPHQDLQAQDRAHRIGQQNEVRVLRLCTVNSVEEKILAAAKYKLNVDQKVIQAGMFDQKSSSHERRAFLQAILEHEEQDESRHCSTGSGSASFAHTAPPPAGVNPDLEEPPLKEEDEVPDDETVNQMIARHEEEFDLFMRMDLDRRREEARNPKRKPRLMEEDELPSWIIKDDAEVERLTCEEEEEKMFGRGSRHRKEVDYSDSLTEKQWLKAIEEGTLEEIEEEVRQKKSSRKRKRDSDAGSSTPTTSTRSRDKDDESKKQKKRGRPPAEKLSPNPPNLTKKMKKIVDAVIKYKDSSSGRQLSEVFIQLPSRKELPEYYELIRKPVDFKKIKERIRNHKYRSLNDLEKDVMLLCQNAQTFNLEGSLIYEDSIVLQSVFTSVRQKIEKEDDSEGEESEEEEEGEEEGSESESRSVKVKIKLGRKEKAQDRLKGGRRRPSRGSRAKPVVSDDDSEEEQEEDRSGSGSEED

Where two headings read alike, the source gives them in different places. Results are given in words; binding and its absence hold for the method and conditions named. Binding seen in cells or lysates may run through a third protein. Some entries that bind do so weakly or less than the wild type.

What all share (experiment): co-IP; lysates of HONE1, AGS or C666-1 cells in IP lysis buffer (50 mM Tris pH 7.4, 150 mM NaCl, 1% NP-40, 0.1% SDS); 1 µg primary antibody 2 h at room temperature, IP beads at 4 °C overnight; five washes with IP lysis buffer; detected by western blotting
In test [1] the target is T1, FOXP1 (human (HONE1, AGS, C666-1 cells)) (UniProt Q9H334).
T1 sequence: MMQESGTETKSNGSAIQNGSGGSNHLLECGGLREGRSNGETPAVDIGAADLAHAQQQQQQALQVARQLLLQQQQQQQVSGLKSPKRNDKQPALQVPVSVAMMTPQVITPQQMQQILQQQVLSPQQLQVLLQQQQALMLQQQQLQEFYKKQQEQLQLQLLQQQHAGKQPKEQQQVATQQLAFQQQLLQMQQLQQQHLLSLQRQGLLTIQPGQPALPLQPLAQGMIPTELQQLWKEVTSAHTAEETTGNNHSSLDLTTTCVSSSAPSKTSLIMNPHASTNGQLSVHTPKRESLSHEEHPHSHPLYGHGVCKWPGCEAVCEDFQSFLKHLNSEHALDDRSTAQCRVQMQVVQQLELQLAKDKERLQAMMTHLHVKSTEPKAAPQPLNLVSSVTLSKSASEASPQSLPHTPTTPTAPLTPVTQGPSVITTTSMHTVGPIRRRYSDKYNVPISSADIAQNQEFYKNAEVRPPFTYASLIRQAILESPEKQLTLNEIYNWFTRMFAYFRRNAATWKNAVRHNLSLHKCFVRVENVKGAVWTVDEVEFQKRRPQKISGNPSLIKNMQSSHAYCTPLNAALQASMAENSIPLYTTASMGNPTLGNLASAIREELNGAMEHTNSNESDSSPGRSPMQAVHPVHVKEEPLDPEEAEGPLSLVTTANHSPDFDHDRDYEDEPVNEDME

Test [2] concerns the target PBRM1 (human (HONE1, AGS, C666-1 cells)) (UniProt Q86U86).
The target of test [3] is SMARCE1 (human (endogenous in HONE1, AGS, C666-1)) (UniProt Q969G3).
For test [4], the target named is DPF2 (human (endogenous in HONE1, AGS, C666-1)) (UniProt Q92785).
Test [5] deals with SMARCA4 (human (endogenous in HONE1, AGS, C666-1)) (UniProt P51532).
Test [6] deals with PBRM1 (human (HONE1, AGS, C666-1 cells)) (UniProt Q86U86). This is another data set of the same source.

Consider DPF2 (from UniProt Q92785 1-391), for which the binding result in test [1] and in test [2] was “no binding” throughout.
For PBRM1 (from UniProt Q86U86 1-1689), the binding entry in test [1] is recorded as “binds”.
As for SMARCA4 (from UniProt P51532 1-1647), the binding result in test [1] was “binds”.
Turning to SMARCE1 (from UniProt Q969G3 1-411), the binding result in test [1] was “binds”.

B1: FOXP1 (protein, UniProt Q9H334 1-677)
chain: MMQESGTETKSNGSAIQNGSGGSNHLLECGGLREGRSNGETPAVDIGAADLAHAQQQQQQALQVARQLLLQQQQQQQVSGLKSPKRNDKQPALQVPVSVAMMTPQVITPQQMQQILQQQVLSPQQLQVLLQQQQALMLQQQQLQEFYKKQQEQLQLQLLQQQHAGKQPKEQQQVATQQLAFQQQLLQMQQLQQQHLLSLQRQGLLTIQPGQPALPLQPLAQGMIPTELQQLWKEVTSAHTAEETTGNNHSSLDLTTTCVSSSAPSKTSLIMNPHASTNGQLSVHTPKRESLSHEEHPHSHPLYGHGVCKWPGCEAVCEDFQSFLKHLNSEHALDDRSTAQCRVQMQVVQQLELQLAKDKERLQAMMTHLHVKSTEPKAAPQPLNLVSSVTLSKSASEASPQSLPHTPTTPTAPLTPVTQGPSVITTTSMHTVGPIRRRYSDKYNVPISSADIAQNQEFYKNAEVRPPFTYASLIRQAILESPEKQLTLNEIYNWFTRMFAYFRRNAATWKNAVRHNLSLHKCFVRVENVKGAVWTVDEVEFQKRRPQKISGNPSLIKNMQSSHAYCTPLNAALQASMAENSIPLYTTASMGNPTLGNLASAIREELNGAMEHTNSNESDSSPGRSPMQAVHPVHVKEEPLDPEEAEGPLSLVTTANHSPDFDHDRDYEDEPVNEDME
For the molecule B1, the binding result in test [3] is given as “binds”; in test [4], “no binding”; in test [5], “binds”; in test [6] it was “binds”.
